Experiments:
[1] = tested on: wheat brown rust fungi (Puccinia recondita); assay: Test Example E: wheat brown rust, spray treatment of wheat plants; assay type: in vivo; details: spray treatment of wheat plants; control value=100{1-(n/3)}
[2] = tested on: gray mold fungi (Botrytis cinerea); assay: Test Example B: tomato gray mold, spray treatment of tomato plants; details: spray treatment of tomato plants; control value=100{1-(n/3)}
[3] = tested on: grape downy mildew fungus (Plasmopara viticola); assay: Test Example G: grape downy mildew, spray treatment of grape plants; details: 250 ppm spray, 2.5 ml/pot, grape Neomuscat; 7 to 10 days from inoculation
[4] = tested on: cabbage Alternaria sooty spot fungi (Alternaia brassicicola); assay: Test Example C: cabbage Alternaria sooty spot, spray treatment of cabbage plants; assay type: in vivo; details: spray treatment of cabbage plants; control value=100{1-(n/3)}
Text: [Test Example C] Cabbage Alternaria Sooty Spot
Test plants (cabbage variety: Shikidori) were cultivated until the cotyledons extended after the sowing of seeds.
<Control Value> Control value=100{1−(n/3)}

[5] = tested on: barley powdery mildew fungi (Blumeria graminis f. sp. hordei); assay: Test Example D: barley powdery mildew, spray treatment of barley plants; details: spray treatment of barley plants; control value=100{1-(n/3)}

SMILES | Test E control value class (wheat brown rust) [1] | Test B control value class (tomato gray mold) [2] | Test G control value class (grape downy mildew) [3] | Test C control value class (cabbage Alternaria sooty spot) [4] | Test D control value class (barley powdery mildew) [5]
O=c1c(Br)cn(-c2cccc(Cl)c2)c(-c2c(F)cc(F)cc2F)c1Br [Compound 140] | L (L shows the control value of 50% or less) | L (L shows the control value of 50% or less) | L (L shows the control value of 50% or less) | H (H shows the control value of more than 50%) | L (L shows the control value of 50% or less)
Cc1ccc(C)c(-n2cc(Br)c(=O)c(Cl)c2-c2c(F)cc(F)cc2F)c1 [Compound 143] | H (H shows the control value of more than 50%) | H (H shows the control value of more than 50%) | H (H shows the control value of more than 50%) | H (H shows the control value of more than 50%) | H (H shows the control value of more than 50%)
Cc1ccc(C)c(-n2cc(Br)c(=O)c(Br)c2-c2c(F)cc(F)cc2F)c1 [Compound 144] | H (H shows the control value of more than 50%) | H (H shows the control value of more than 50%) | H (H shows the control value of more than 50%) | H (H shows the control value of more than 50%) | H (H shows the control value of more than 50%)
CCOC(=O)Cn1cc(Cl)c(=O)c(Cl)c1-c1c(F)cc(F)cc1F [Compound 145] | H (H shows the control value of more than 50%) | L (L shows the control value of 50% or less) | H (H shows the control value of more than 50%) | H (H shows the control value of more than 50%) | L (L shows the control value of 50% or less)
Cc1cc(-n2cc(Br)c(=O)c(Br)c2-c2c(F)cc(F)cc2F)no1 [Compound 146] | H (H shows the control value of more than 50%) | L (L shows the control value of 50% or less) | L (L shows the control value of 50% or less) | H (H shows the control value of more than 50%) | L (L shows the control value of 50% or less)
Cc1onc(-n2cc(Br)c(=O)c(Br)c2-c2c(F)cc(F)cc2F)c1Br [Compound 147] | H (H shows the control value of more than 50%) | H (H shows the control value of more than 50%) | H (H shows the control value of more than 50%) | H (H shows the control value of more than 50%) | H (H shows the control value of more than 50%)
Cc1ccc(C)c(-n2cc(Cl)c(=O)c(Br)c2-c2c(F)cc(F)cc2F)c1 [Compound 148] | H (H shows the control value of more than 50%) | H (H shows the control value of more than 50%) | H (H shows the control value of more than 50%) | H (H shows the control value of more than 50%) | H (H shows the control value of more than 50%)
Cc1ccc(C)c(-n2cc(Cl)c(=O)c(Cl)c2-c2c(F)cc(F)cc2F)c1 [Compound 149] | H (H shows the control value of more than 50%) | H (H shows the control value of more than 50%) | H (H shows the control value of more than 50%) | H (H shows the control value of more than 50%) | H (H shows the control value of more than 50%)
Cc1cn(C(C)C(C)C)c(-c2c(F)cc(F)cc2F)c(C)c1=O (stereo not shown) [Compound 152] | H (H shows the control value of more than 50%) | H (H shows the control value of more than 50%) | L (L shows the control value of 50% or less) | H (H shows the control value of more than 50%) | H (H shows the control value of more than 50%)
CC1CCCCC1n1cc(Cl)c(=O)c(Cl)c1-c1c(F)cc(F)cc1F (stereo not shown) [Compound 153] | H (H shows the control value of more than 50%) | H (H shows the control value of more than 50%) | L (L shows the control value of 50% or less) | H (H shows the control value of more than 50%) | L (L shows the control value of 50% or less)
CC1CCCCC1n1cc(Cl)c(=O)c(Br)c1-c1c(F)cc(F)cc1F (stereo not shown) [Compound 154] | H (H shows the control value of more than 50%) | H (H shows the control value of more than 50%) | L (L shows the control value of 50% or less) | H (H shows the control value of more than 50%) | H (H shows the control value of more than 50%)
COc1cc(F)c(-c2c(C)c(=O)c(C)cn2C(C)C(C)C)c(F)c1 (stereo not shown) [Compound 155] | H (H shows the control value of more than 50%) | H (H shows the control value of more than 50%) | L (L shows the control value of 50% or less) | H (H shows the control value of more than 50%) | H (H shows the control value of more than 50%)
Cc1c(-c2c(F)cc(F)cc2F)n(C(C)C(C)C)cc(C(F)(F)F)c1=O (stereo not shown) [Compound 157] | L (L shows the control value of 50% or less) | H (H shows the control value of more than 50%) | L (L shows the control value of 50% or less) | H (H shows the control value of more than 50%) | H (H shows the control value of more than 50%)
CC1CCCCC1n1cc(Br)c(=O)c(Cl)c1-c1c(F)cc(F)cc1F (stereo not shown) [Compound 159] | H (H shows the control value of more than 50%) | H (H shows the control value of more than 50%) | L (L shows the control value of 50% or less) | H (H shows the control value of more than 50%) | L (L shows the control value of 50% or less)

From patent publication US11000038B2, “Pyridone compounds and agricultural and horticultural fungicides containing the same as active ingredients” (priority 2017, dated 2021)
